{"source": "the supplement of paper PMC11417369", "note": "Some of the results follow.", "data": [{"test_system": "PfAP2-HC AP2 domain (GST-tagged)", "assay": "gcPBM binding intensity (ln(normalized median fluorescence intensity)); higher = stronger DNA binding", "method_in_brief": "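DNA-binding domains from P. falciparum, fused to GST and produced in E. coli, were put on an Agilent 4 × 180k double-stranded probe array for 1 h in 1× PBS holding 1% milk, 0.2 mg/ml BSA, 0.5% salmon testes DNA and 0.03% Triton X-100. Probes were primer-extended, 36 bp long and drawn from intergenic genomic regions, with negative controls included. After Alexa488 anti-GST antibody detection and a 488 nm scan, binding intensity was set as the highest Masliner-normalised natural-log median intensity across replicate spots of either probe orientation.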", "values": [{"sequence": "TAATAATTAATTAATATAATATTTTTTCATAATTAT [XGTACX_negctrl_site602]", "gcPBM binding intensity (ln)": 9.56}, {"sequence": "ATAGAAAAAATATACACACACTTATTAAATAAAAAT [CACACA_site7540]", "gcPBM binding intensity (ln)": 10.1}, {"sequence": "TTTTTTTTTTTCGGGGGTACTAATATATTATTAATA [XGTACX_site7809]", "gcPBM binding intensity (ln)": 9.82}, {"sequence": "GTTTTTAAGAAAAACACACACTCCTGTTATTTTATA [CACACA_site3696]", "gcPBM binding intensity (ln)": 9.89}, {"sequence": "ATATAATATATATATTGTACATATATTTATAAGCAT [XGTACX_site3726]", "gcPBM binding intensity (ln)": 9.59}, {"sequence": "AATGTGCTCGCTATTACACACTCATTGGGATAAACT [CACACA_site7043]", "gcPBM binding intensity (ln)": 9.72}, {"sequence": "TATATATATATATATTGTACATTTACCAAATTGTGT [XGTACX_site5791]", "gcPBM binding intensity (ln)": 9.62}, {"sequence": "TATATAAATAAATATACACACATATATAAATATACA [CACACA_site2982]", "gcPBM binding intensity (ln)": 9.8}, {"sequence": "TTTTTTTTTTTTTGCACACTTAAATTTGGAGTGTAG [CACACA_site2345]", "gcPBM binding intensity (ln)": 9.83}, {"sequence": "TTTAATAATAATACTAGTACACATTCTTTATTATTT [XGTACX_site2671]", "gcPBM binding intensity (ln)": 9.9}, {"sequence": "TGAATTAAGATTTATTGTACATAATTTATACCATAT [XGTACX_site7034]", "gcPBM binding intensity (ln)": 9.65}, {"sequence": "TAAATTTATAGACACACACACATATAAATAAATATA [CACACA_site6530]", "gcPBM binding intensity (ln)": 10.8}, {"sequence": "AAGATTTTCCTTGATAGTACACTTATGAAAATTTGT [XGTACX_site3047]", "gcPBM binding intensity (ln)": 9.59}, {"sequence": "AATATCTTAGTGGATACACACATATAAATGTGGATT [CACACA_site485]", "gcPBM binding intensity (ln)": 9.65}, {"sequence": "ATATATTACGACTTCTGTACATAATATATAAAAGAA [XGTACX_site2353]", "gcPBM binding intensity (ln)": 9.7}, {"sequence": "TTTTTTTTTTTTTTTTTTTTTTTGTCTTATTTTTTT [GTGCAC_negctrl_site338]", "gcPBM binding intensity (ln)": 9.01}, {"sequence": "AAAGTAAAAAATCATAGTACACATTTAAATATATAT [XGTACX_site2323]", "gcPBM binding intensity (ln)": 10}, {"sequence": "TAATATATCAAATGAAGTACTCACATATACATAATA [XGTACX_site6051]", "gcPBM binding intensity (ln)": 9.72}, {"sequence": "GGTATATATTTATAATGTACATATTCATATATATAA [XGTACX_site3291]", "gcPBM binding intensity (ln)": 9.4}, {"sequence": "TTTTTTAAATTATGTAGTACGATTCATTTTTTATAA [XGTACX_site1101]", "gcPBM binding intensity (ln)": 9.48}, {"sequence": "CATCATCTTTTAAAGGTGCATAATAATATTGTTAAT", "gcPBM binding intensity (ln)": 9.46}, {"sequence": "ATGTTCTTTAAAACCACACACCCCCCAACCCCCCTC [CACACA_site2373]", "gcPBM binding intensity (ln)": 9.8}, {"sequence": "GTCTATTATTTTTGAAGTACAAAAATTTTAGTTAAA [XGTACX_site4708]", "gcPBM binding intensity (ln)": 9.5}, {"sequence": "TCGCCCTACAATTTGTTTATATATTAAATAAAATTT [CACACA_negctrl_site883]", "gcPBM binding intensity (ln)": 9.76}, {"sequence": "AATATATTTAATCATACACACATTTATGTACCTATA [CACACA_site1718]", "gcPBM binding intensity (ln)": 9.96}, {"sequence": "TGAAATTCCATAAAATGTACATATTAGTTTAATTCA [XGTACX_site4031]", "gcPBM binding intensity (ln)": 9.44}, {"sequence": "TTACAACATGAAAATGTGCACATATATATATATATA", "gcPBM binding intensity (ln)": 9.7}, {"sequence": "AAAAATAAATATATATGTACACATATGTATACAATA [XGTACX_site4692]", "gcPBM binding intensity (ln)": 9.72}, {"sequence": "GAAATAAATATAATATATATATATATATATATATGT [TGCATGCA_negctrl_site216]", "gcPBM binding intensity (ln)": 9.6}, {"sequence": "GGTATACACAGACATGCATGTAATTATATATAGGGA [TGCATGCA_site83]", "gcPBM binding intensity (ln)": 10.3}, {"sequence": "TATTATTATTATGGTAGTACATGTAGGTTATTAAAA [XGTACX_site5742]", "gcPBM binding intensity (ln)": 9.69}, {"sequence": "AATTGGGAAGGACATGCATGAGAAATTAATATTGCA [TGCATGCA_site424]", "gcPBM binding intensity (ln)": 9.63}, {"sequence": "ATATTTATAAATTGCACACAAATAATAACATTCTAT [CACACA_site2357]", "gcPBM binding intensity (ln)": 9.8}, {"sequence": "ATATCTACTATACAACTGAGTGTAGAAAAATTAAAC [CACACA_negctrl_site1211]", "gcPBM binding intensity (ln)": 9.76}, {"sequence": "ACTTTGCTCTACAATGCATGCTCATTTAACAAGGCA [TGCATGCA_site676]", "gcPBM binding intensity (ln)": 9.51}, {"sequence": "TATATTAAATGAAACAAACACACATAGCCTTTAAAT [CACACA_site1559]", "gcPBM binding intensity (ln)": 9.91}, {"sequence": "TCAATTTTACTTGTTTGTACATAAAATAATAAGGTT [XGTACX_site3732]", "gcPBM binding intensity (ln)": 9.47}, {"sequence": "AAGAAAAAAAAAATTACACACTGCGGACATACACAA [CACACA_site4838]", "gcPBM binding intensity (ln)": 9.98}, {"sequence": "ATATTTTGTTTTTGTTCTTTTTTTTTCTTTTTTTTT [CACACA_negctrl_site1342]", "gcPBM binding intensity (ln)": 9.93}, {"sequence": "ATATATATATATATATGTACATATTTTTATTTATAC [XGTACX_site2858]", "gcPBM binding intensity (ln)": 9.67}, {"sequence": "TATGTAATGTTTACAACACACAAATTATAAATACAA [CACACA_site1771]", "gcPBM binding intensity (ln)": 9.73}, {"sequence": "TATTTATATGTATATACATGCACATATATATGAAAC [TGCATGCA_site1005]", "gcPBM binding intensity (ln)": 9.63}, {"sequence": "CTATTTTATATGTGCACACATATACTCAGACAAATA [CACACA_site4761]", "gcPBM binding intensity (ln)": 9.95}, {"sequence": "ACCTATATACTAAATGCACACTTATATATTTATATA [CACACA_site5371]", "gcPBM binding intensity (ln)": 9.88}, {"sequence": "AAAAAAAAAAAAAAATGTACATATATATAAATATAT [XGTACX_site6768]", "gcPBM binding intensity (ln)": 9.53}]}]}
